Measured values from the supplement of paper PMC11876631.
± gives the standard deviation of the averaged measurements. Laboratory Escherichia coli strains with one amino-acid change in an essential protein, pooled on minimal glucose agar with carbenicillin or gentamicin at twice the control MIC (plus kanamycin and chloramphenicol for the plasmids), 48 h. Fold change of barcode share against drug-free plates; higher = less susceptible. Active = above 20 in both replicates (the paper's putatively resistant). '<' = one read or none on drug, '>' = one read or none on a drug-free plate. Shares are relative, so most strains fall below 1 when a few take over. Listed are strains with at least 15 reads on both drug-free plates, and hits; most hits rest on fewer reference reads. Replicate rank correlation about 0.5. Edits are read from barcodes.

B1: aroB L39P (protein)
chain: MERIVVTLGERSYPITIASGLFNEPASFLPLKSGEQVMPVTNETLAPLYLDKVRGVLEQAGVNVDSVILPDGEQYKSLAVLDTVFTALLQKPHGRDTTLVALGGGVVGDLTGFAAASYQRGVRFIQVPTTLLSQVDSSVGGKTAVNHPLGKNMIGAFYQPASVVVDLDCLKTLPPRELASGLAEVIKYGIILDGAFFNWLEENLDALLRLDGPAMAYCIRRCCELKAEVVAADERETGLRALLNLGHTFGHAIEAEMGYGNWLHGEAVAAGMVMAARTSERLGQFSSAETQRIITLLKRAGLPVNGPREMSAQAYLPHMLRDKKVLAGEMRLILPLAIGKSEVRSGVSHELVLNAIADCQSA
B2: lolA V152A (protein)
chain: MKKIAITCALLSSLVASSVWADAASDLKSRLDKVSSFHASFTQKVTDGSGAAVQEGQGDLWVKRPNLFNWHMTQPDESILVSDGKTLWFYNPFVEQATATWLKDATGNTPFMLIARNQSSDWQQYNIKQNGDDFVLTPKASNGNLKQFTINAGRDGTIHQFSAVEQDDQRSSYQLKSQQNGAVDAAKFTFTPPQGVTVDDQRK
B3: lolA F161A (protein)
chain: MKKIAITCALLSSLVASSVWADAASDLKSRLDKVSSFHASFTQKVTDGSGAAVQEGQGDLWVKRPNLFNWHMTQPDESILVSDGKTLWFYNPFVEQATATWLKDATGNTPFMLIARNQSSDWQQYNIKQNGDDFVLTPKASNGNLKQFTINVGRDGTIHQASAVEQDDQRSSYQLKSQQNGAVDAAKFTFTPPQGVTVDDQRK
B4: aroB M38W (protein)
chain: MERIVVTLGERSYPITIASGLFNEPASFLPLKSGEQVWLVTNETLAPLYLDKVRGVLEQAGVNVDSVILPDGEQYKSLAVLDTVFTALLQKPHGRDTTLVALGGGVVGDLTGFAAASYQRGVRFIQVPTTLLSQVDSSVGGKTAVNHPLGKNMIGAFYQPASVVVDLDCLKTLPPRELASGLAEVIKYGIILDGAFFNWLEENLDALLRLDGPAMAYCIRRCCELKAEVVAADERETGLRALLNLGHTFGHAIEAEMGYGNWLHGEAVAAGMVMAARTSERLGQFSSAETQRIITLLKRAGLPVNGPREMSAQAYLPHMLRDKKVLAGEMRLILPLAIGKSEVRSGVSHELVLNAIADCQSA
B5: aroB M38Q (protein)
chain: MERIVVTLGERSYPITIASGLFNEPASFLPLKSGEQVQLVTNETLAPLYLDKVRGVLEQAGVNVDSVILPDGEQYKSLAVLDTVFTALLQKPHGRDTTLVALGGGVVGDLTGFAAASYQRGVRFIQVPTTLLSQVDSSVGGKTAVNHPLGKNMIGAFYQPASVVVDLDCLKTLPPRELASGLAEVIKYGIILDGAFFNWLEENLDALLRLDGPAMAYCIRRCCELKAEVVAADERETGLRALLNLGHTFGHAIEAEMGYGNWLHGEAVAAGMVMAARTSERLGQFSSAETQRIITLLKRAGLPVNGPREMSAQAYLPHMLRDKKVLAGEMRLILPLAIGKSEVRSGVSHELVLNAIADCQSA
B6: lolB I122A (protein)
chain: MPLPDFRLIRLLPLAALVLTACSVTTPKGPGKSPDSPQWRQHQQDVRNLNQYQTRGAFAYISDQQKVYARFFWQQTGQDRYRLLLTNPLGSTELELNAQPGNVQLVDNKGQRYTADDAEEMAGKLTGMPIPLNSLRQWILGLPGDATDYKLDDQYRLSEITYSQNGKNWKVVYGGYDTKTQPAMPANMELTDGGQRIKLKMDNWIVK
B7: lolB I122W (protein)
chain: MPLPDFRLIRLLPLAALVLTACSVTTPKGPGKSPDSPQWRQHQQDVRNLNQYQTRGAFAYISDQQKVYARFFWQQTGQDRYRLLLTNPLGSTELELNAQPGNVQLVDNKGQRYTADDAEEMWGKLTGMPIPLNSLRQWILGLPGDATDYKLDDQYRLSEITYSQNGKNWKVVYGGYDTKTQPAMPANMELTDGGQRIKLKMDNWIVK
B8: lolB I122Q (protein)
chain: MPLPDFRLIRLLPLAALVLTACSVTTPKGPGKSPDSPQWRQHQQDVRNLNQYQTRGAFAYISDQQKVYARFFWQQTGQDRYRLLLTNPLGSTELELNAQPGNVQLVDNKGQRYTADDAEEMQGKLTGMPIPLNSLRQWILGLPGDATDYKLDDQYRLSEITYSQNGKNWKVVYGGYDTKTQPAMPANMELTDGGQRIKLKMDNWIVK
B9: lolB I122D (protein)
chain: MPLPDFRLIRLLPLAALVLTACSVTTPKGPGKSPDSPQWRQHQQDVRNLNQYQTRGAFAYISDQQKVYARFFWQQTGQDRYRLLLTNPLGSTELELNAQPGNVQLVDNKGQRYTADDAEEMDGKLTGMPIPLNSLRQWILGLPGDATDYKLDDQYRLSEITYSQNGKNWKVVYGGYDTKTQPAMPANMELTDGGQRIKLKMDNWIVK
B10: lolB I122P (protein)
chain: MPLPDFRLIRLLPLAALVLTACSVTTPKGPGKSPDSPQWRQHQQDVRNLNQYQTRGAFAYISDQQKVYARFFWQQTGQDRYRLLLTNPLGSTELELNAQPGNVQLVDNKGQRYTADDAEEMPGKLTGMPIPLNSLRQWILGLPGDATDYKLDDQYRLSEITYSQNGKNWKVVYGGYDTKTQPAMPANMELTDGGQRIKLKMDNWIVK
B11: lolB I130A (protein)
chain: MPLPDFRLIRLLPLAALVLTACSVTTPKGPGKSPDSPQWRQHQQDVRNLNQYQTRGAFAYISDQQKVYARFFWQQTGQDRYRLLLTNPLGSTELELNAQPGNVQLVDNKGQRYTADDAEEMIGKLTGMPAPLNSLRQWILGLPGDATDYKLDDQYRLSEITYSQNGKNWKVVYGGYDTKTQPAMPANMELTDGGQRIKLKMDNWIVK
B12: lolB I130W (protein)
chain: MPLPDFRLIRLLPLAALVLTACSVTTPKGPGKSPDSPQWRQHQQDVRNLNQYQTRGAFAYISDQQKVYARFFWQQTGQDRYRLLLTNPLGSTELELNAQPGNVQLVDNKGQRYTADDAEEMIGKLTGMPWPLNSLRQWILGLPGDATDYKLDDQYRLSEITYSQNGKNWKVVYGGYDTKTQPAMPANMELTDGGQRIKLKMDNWIVK
B13: lolB I130Q (protein)
chain: MPLPDFRLIRLLPLAALVLTACSVTTPKGPGKSPDSPQWRQHQQDVRNLNQYQTRGAFAYISDQQKVYARFFWQQTGQDRYRLLLTNPLGSTELELNAQPGNVQLVDNKGQRYTADDAEEMIGKLTGMPQPLNSLRQWILGLPGDATDYKLDDQYRLSEITYSQNGKNWKVVYGGYDTKTQPAMPANMELTDGGQRIKLKMDNWIVK
B14: lolB I130D (protein)
chain: MPLPDFRLIRLLPLAALVLTACSVTTPKGPGKSPDSPQWRQHQQDVRNLNQYQTRGAFAYISDQQKVYARFFWQQTGQDRYRLLLTNPLGSTELELNAQPGNVQLVDNKGQRYTADDAEEMIGKLTGMPDPLNSLRQWILGLPGDATDYKLDDQYRLSEITYSQNGKNWKVVYGGYDTKTQPAMPANMELTDGGQRIKLKMDNWIVK
B15: lolB I130P (protein)
chain: MPLPDFRLIRLLPLAALVLTACSVTTPKGPGKSPDSPQWRQHQQDVRNLNQYQTRGAFAYISDQQKVYARFFWQQTGQDRYRLLLTNPLGSTELELNAQPGNVQLVDNKGQRYTADDAEEMIGKLTGMPPPLNSLRQWILGLPGDATDYKLDDQYRLSEITYSQNGKNWKVVYGGYDTKTQPAMPANMELTDGGQRIKLKMDNWIVK
B16: lolB W138A (protein)
chain: MPLPDFRLIRLLPLAALVLTACSVTTPKGPGKSPDSPQWRQHQQDVRNLNQYQTRGAFAYISDQQKVYARFFWQQTGQDRYRLLLTNPLGSTELELNAQPGNVQLVDNKGQRYTADDAEEMIGKLTGMPIPLNSLRQAILGLPGDATDYKLDDQYRLSEITYSQNGKNWKVVYGGYDTKTQPAMPANMELTDGGQRIKLKMDNWIVK
B17: lolB W138Q (protein)
chain: MPLPDFRLIRLLPLAALVLTACSVTTPKGPGKSPDSPQWRQHQQDVRNLNQYQTRGAFAYISDQQKVYARFFWQQTGQDRYRLLLTNPLGSTELELNAQPGNVQLVDNKGQRYTADDAEEMIGKLTGMPIPLNSLRQQILGLPGDATDYKLDDQYRLSEITYSQNGKNWKVVYGGYDTKTQPAMPANMELTDGGQRIKLKMDNWIVK

Molecular target: Escherichia coli (laboratory strain)
Assay: barcode share on antibiotic plates over drug-free plates; higher = less susceptible
Details: antibiotic: carbenicillin; 2× MIC (3.1 µg/mL)
Experimental: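 A pool of E. coli strains, each edited to carry one amino-acid change in an essential protein, was grown for 48 h on minimal glucose agar with or without antibiotic; strain barcodes were sequenced; mean of two replicates.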

| Protein | fold change of barcode share |
| --- | --- |
| B1 | 0.577 ± 0.039 |
| B2 | 0.301 ± 0.15 |
| B3 | 0.497 ± 0.042 |
| B4 | 0.672 ± 0.4 |
| B5 | 0.869 ± 0.16 |
| B6 | 0.328 ± 0.12 |
| B7 | 0.295 ± 0.022 |
| B8 | 0.285 ± 0.016 |
| B9 | 0.386 ± 0.06 |
| B10 | 0.243 ± 0.038 |
| B11 | 0.968 ± 0.074 |
| B12 | 0.305 ± 0.054 |
| B13 | 0.253 ± 0.028 |
| B14 | 0.386 ± 0.11 |
| B15 | 0.746 ± 0.014 |
| B16 | 0.2353 ± 0.0014 |
| B17 | 0.302 ± 0.024 |

Same assay, conditions: antibiotic: gentamicin; 2× MIC (MIC 0.45 µg/mL)

| Protein | fold change of barcode share |
| --- | --- |
| B1 | < 0.00986 |
| B2 | 0.00533 ± 0.0029 |
| B3 | 0.00639 ± 0.0025 |
| B4 | < 0.0119 |
| B5 | < 0.0149 |
| B6 | < 0.00305 |
| B7 | 0.00348 ± 0.0017 |
| B8 | < 0.00268 |
| B9 | < 0.00709 |
| B10 | 0.00542 ± 0.00065 |
| B11 | 0.00556 ± 0.0055 |
| B12 | 0.00612 ± 0.0025 |
| B13 | 0.0027 ± 0.0014 |
| B14 | 0.00319 ± 0.0015 |
| B15 | < 0.00156 |
| B16 | 0.00507 ± 0.002 |
| B17 | 0.00578 ± 0.0038 |
